Structures can show the parent of a compound that is named as a salt. The list shows a part of the results. Many values rest on one well or one pass, so single values are uncertain.
The compounds below were run on Beas-2B AQP5-HiBiT reporter cells (assay: AQP5-HiBiT luminescence relative to vehicle (ratio to vehicle); higher = higher AQP5-HiBiT protein abundance). Settings: 10 µM; 18 h.
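Note: monoclonal Beas-2B line stably carrying CMV promoter-driven AQP5-HiBiT, 5,000 cells per well in 384-well plates, lytic HiBiT plus LgBiT NanoLuc luminescence, FDA-approved drug library screen.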

Row | SMILES | AQP5-HiBiT luminescence
1 | S=c1[nH]cnc2nc[nH]c12 [6-Mercaptopurine monohydrate] | 1.32
2 | COc1cc2c(cc1OC)CC(=O)N(CCCN(C)C[C@H]1Cc3cc(OC)c(OC)cc31)CC2 [Ivabradine hydrochloride] | 0.734
3 | O=C(CCCCC(=O)Nc1c(I)cc(I)c(C(=O)O)c1I)Nc1c(I)cc(I)c(C(=O)O)c1I [Iodipamide] | 0.77
4 | COc1cc(C(=O)NS(=O)(=O)c2ccccc2C)ccc1Cc1cn(C)c2ccc(NC(=O)OC3CCCC3)cc12 [Zafirlukast] | 0.667
5 | CC1=C(CC(=O)O)c2cc(F)ccc2/C1=C\c1ccc([S+](C)[O-])cc1 (stereo not given) [Sulindac] | 0.971
6 | CN(Cc1cnc2nc(N)nc(N)c2n1)c1ccc(C(=O)N[C@@H](CCC(=O)O)C(=O)O)cc1 [Methotrexate] | 1.78
7 | Cc1ccc(N(CC2=NCCN2)c2cccc(O)c2)cc1 [Phentolamine mesilate] | 1.02
8 | CCCN[C@H]1CCc2nc(N)sc2C1 [Pramipexole] | 0.75
9 | Oc1ncnc2[nH]ncc12 [Allopurinol] | 0.907
10 | CC(C)(O)c1ccccc1CC[C@@H](SCC1(CC(=O)O)CC1)c1cccc(/C=C/c2ccc3ccc(Cl)cc3n2)c1 [Montelukast] | 0.914
11 | O=NO [Sodium nitrite] | 1.04
12 | CC1(C)O[C@@H]2C[C@H]3[C@@H]4CCC5=CC(=O)C=C[C@]5(C)[C@H]4[C@@H](O)C[C@]3(C)[C@]2(C(=O)CO)O1 [Desonide] | 0.935
13 | Cc1cc(Nc2ncc(Cl)c(Nc3ccccc3S(=O)(=O)C(C)C)n2)c(OC(C)C)cc1C1CCNCC1 [LDK378(Ceritinib)] | 0.282
14 | O=C(OCc1ccccc1)c1ccccc1 [Benzyl benzoate] | 0.828
15 | CCOC(=O)C1=C[C@@H](OC(CC)CC)[C@H](NC(C)=O)[C@@H](N)C1 [Oseltamivir phosphate] | 0.925
16 | C[C@@H](O[C@H]1OCCN(Cc2n[nH]c(=O)[nH]2)[C@H]1c1ccc(F)cc1)c1cc(C(F)(F)F)cc(C(F)(F)F)c1 [Aprepitant] | 1.16
17 | NC(=O)CCC(N)C(=O)O (racemic) [DL-Glutamine] | 0.875
18 | CC(CN(C)C)CN1c2ccccc2Sc2ccccc21 (stereo not given) [Trimeprazine tartrate] | 2.31
19 | CCOc1cc([C@@H](CS(C)(=O)=O)N2C(=O)c3cccc(NC(C)=O)c3C2=O)ccc1OC | 0.561
20 | NC(N)=O | 0.665

Row | SMILES | AQP5-HiBiT luminescence
21 | CC(C)Cn1cnc2c(N)nc3ccccc3c21 [Imiquimod] | 0.786
22 | CCCCNc1cc(C(=O)O)cc(S(N)(=O)=O)c1Oc1ccccc1 [Bumetanide] | 0.88
23 | C[N+](C)(C)CC(=O)O [Betaine] | 0.807
24 | CC(=O)OCC(CCn1cnc2cnc(N)nc21)COC(C)=O [Famciclovir] | 0.845
25 | CCCCCCOC(=O)NC(=N)c1ccc(NCc2nc3cc(C(=O)N(CCC(=O)OCC)c4ccccn4)ccc3n2C)cc1 [Dabigatran etexilate] | 0.63
26 | O=c1cc[nH]c(=O)[nH]1 [Uracil] | 0.621
27 | C=C1CCN([C@H](C)[C@](O)(Cn2cncn2)c2ccc(F)cc2F)CC1 [Efinaconazole] | 0.638
28 | CCn1cc(C(=O)O)c(=O)c2cc(F)c(N3CCNCC3)cc21 [Norfloxacin] | 1.61
29 | CC(C(=O)O)c1ccc2c(c1)[nH]c1ccc(Cl)cc12 (stereo not given) [Carprofen] | 1.03
30 | O=C1C(CC[S+]([O-])c2ccccc2)C(=O)N(c2ccccc2)N1c1ccccc1 (stereo not given) [Sulfinpyrazone] | 0.743
31 | O=C1c2c(O)ccc(O)c2C(=O)c2c(NCCNCCO)ccc(NCCNCCO)c21 [Mitoxantrone hydrochloride] | 2.68
32 | C=CC1=C(C(=O)O)N2C(=O)[C@@H](NC(=O)/C(=N\OCC(=O)O)c3csc(N)n3)[C@H]2SC1 [Cefixime] | 0.794
33 | N=C(N)NC(=O)c1nc(Cl)c(N)nc1N [Amiloride hydrochloride] | 0.796
34 | C[C@H](Cn1cnc2c(N)ncnc21)OCP(=O)(O)O [Tenofovir] | 0.808
35 | CCc1nc(N)nc(N)c1-c1ccc(Cl)cc1 [Pyrimethamine] | 0.834
36 | CC(=O)S[C@@H]1CC2=CC(=O)CC[C@]2(C)[C@H]2CC[C@@]3(C)[C@@H](CC[C@@]34CCC(=O)O4)[C@H]12 [Abbolactone] | 0.827
37 | O=C1CN(/N=C/c2ccc([N+](=O)[O-])o2)C(=O)N1 [Nitrofurantoin] | 0.865
38 | OC(c1cc(C(F)(F)F)nc2c(C(F)(F)F)cccc12)C1CCCCN1 (stereo not given) [Mefloquine hydrochloride] | 1.16
39 | Cc1ccc(C(=O)c2ccc(CC(=O)O)n2C)cc1 [Tolmetin] | 0.811
40 | O=C(OOC(=O)c1ccccc1)c1ccccc1 [Benzoyl peroxide] | 0.587
